Some of the results follow. The main result of the screen is listed elsewhere. These columns were measured beside it and carry no call.
Biological target: GTPase KRas (Homo sapiens) (UniProt P01116)
Experiment: Cysteine mutants labelled by reactive fragments (mass read-out) (AID 2202238)
Parameters: protein at 5 µM with 500 µM competing thiol for 1.5 h
Conditions: KRAS G12D cysteine mutants, disulfide tethering, MALDI-TOF labeling, stronger effect = higher value, fragment at 500 µM
[1] = measured here: G60C mutant labeling
[2] = measured here: G75C mutant labeling
[3] = measured here: H94C mutant labeling
[4] = measured here: I36C mutant labeling
[5] = measured here: L120C mutant labeling
[6] = measured here: M67C mutant labeling
[7] = measured here: M72C mutant labeling
[8] = measured here: N26C mutant labeling
[9] = measured here: N86C mutant labeling
[10] = measured here: P121C mutant labeling
[11] = measured here: S122C mutant labeling
[12] = measured here: S136C mutant labeling

Chain of UniProt P01116 (P01116 whole entry, looked up, the tested form may be a part): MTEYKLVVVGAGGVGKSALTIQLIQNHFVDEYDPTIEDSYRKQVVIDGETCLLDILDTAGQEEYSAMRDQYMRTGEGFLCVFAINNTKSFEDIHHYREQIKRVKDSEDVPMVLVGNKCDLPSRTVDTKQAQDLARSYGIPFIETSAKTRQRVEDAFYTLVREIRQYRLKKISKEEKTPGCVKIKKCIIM

Structure (SMILES) | percent labeling [1] | percent labeling [2] | percent labeling [3] | percent labeling [4] | percent labeling [5] | percent labeling [6] | percent labeling [7] | percent labeling [8] | percent labeling [9] | percent labeling [10] | percent labeling [11] | percent labeling [12]
O=C(NCCS)C1COc2cc(F)ccc2C1 (stereo unspecified) | 33.8% | 9.8% | 16.5% | 22.3% | 20.8% | 15.7% | 27% | 32.6% | 10% | 14.9% | 13.9% | 26.7%
CC(C(=O)NCCS)c1cn(C)c2ccccc12 (stereo unspecified) | 54.8% | 25.3% | 31.8% | 24.7% | 35.6% | 24.7% | 40.7% | 34.6% | 27.9% | 22% | 20% | 41%
O=C(CCS)N(Cc1ccco1)c1ccccc1 |  | 19.4% | 30.6% | 24% | 19.2% | 28.9% | 33.4% |  | 14.3% | 27.9% | 26.1% | 45.7%
O=C(CCS)N1CCC(Oc2ccccn2)CC1 |  | 19.5% | 33% | 39.2% | 35.2% | 66.5% | 29% |  | 28% | 39.5% | 39.6% | 61.6%
O=C(CCS)NCc1cnc2ccc(Br)cn12 |  | 18.8% | 34.4% | 49.4% | 23.6% | 45.3% | 28.2% |  | 21.4% | 34.2% | 27.7% | 46.7%
COc1ccc(C2(NC(=O)CCS)CCC2)cn1 |  | 11.1% | 26.7% | 38.3% | 25.2% | 36.1% | 24.6% |  | 19.2% | 32.5% | 33.5% | 47%
Cc1nn(-c2ccc(Cl)cc2)c(C)c1CC(=O)NCCS | 44% | 22.7% | 31.3% | 23.2% | 22.1% | 26.1% | 33.9% | 40% | 17.2% | 19.7% | 14.8% | 27.8%
O=C(CCS)NCCc1csc(-c2ccc(Cl)cc2)n1 |  | 14.2% | 42.2% | 24.4% | 15.9% | 22% | 38.8% |  | 21.5% | 16.4% | 10.4% | 30.2%
O=C(CCS)N1CCN(CCn2cccn2)CC1 |  | 7.2% | 23.7% | 31.9% | 21.7% | 32.3% | 10.8% |  | 21.6% | 30.3% | 27.9% | 49.6%
O=C(CC[C@@H]1CC[C@H](C(F)(F)F)O1)NCCS | 21.6% | 11% | 26.1% | 18.7% | 39.9% | 23.2% | 15.8% | 30.7% | 22% | 30% | 29.5% | 38.2%
CC(C(=O)NCCS)n1ccc(C(F)(F)F)n1 (stereo unspecified) | 34.5% | 15.2% | 33.7% | 26.9% | 48.9% | 28% | 23.8% | 36.3% | 34.3% | 29.5% | 30.2% | 38.9%
CN(C(=O)c1ccc(C(=O)NCCS)cc1)c1ccccc1 | 40.1% | 20.2% | 26% | 18.2% | 30.6% | 29.8% | 34.5% | 33.7% | 20.5% | 21.2% | 19% | 51.7%
O=C(NCCS)C1(n2cnnn2)CCCCC1 | 35.5% | 17.1% | 28.6% | 24.6% | 31.8% | 27.5% | 33.7% | 36.3% | 35.4% | 31.1% | 29.7% | 41%
COc1ccc(C)c2[nH]c(C(=O)NCCS)cc12 | 16.2% | 15.3% | 8.2% | 8% | 13.2% | 9.5% | 31% | 29.6% | 10.7% | 8.9% | 8.2% | 15.4%
Cn1ccc(N(Cc2ccccc2)C(=O)CCS)n1 |  | 18.7% | 44.7% | 38% | 27.6% | 40.1% | 51.4% |  | 24.4% | 29.8% | 34% | 62.4%
Cn1c(CNC(=O)CCS)cc(=O)n(C)c1=O |  | 7.9% | 22.1% | 35.4% | 27% | 37.4% | 9.8% |  | 22.6% | 28% | 31.6% | 41.5%
O=C(NCCS)c1cccn1-c1ccc2c(c1)OCCO2 | 44.5% | 11% | 28.5% | 20.1% | 19.3% | 19.9% | 38% | 31% | 12.3% | 15.2% | 14.7% | 25.4%
Cc1nn(C)c(N(C)C)c1CNC(=O)CCS |  | 11% | 29.6% | 34.3% | 25.7% | 31.7% | 19.1% |  | 16.4% | 30.3% | 32.4% | 49.2%
O=C(Cn1nc2n(c1=O)CCCCC2)NCCS | 22% | 9.7% | 26.2% | 26.7% | 42.4% | 28.1% | 19.1% | 30.4% | 21.7% | 31.3% | 33.5% | 38.4%
COc1cc(C(=O)NCCS)cc(OC)c1O | 29.1% | 15.9% | 32.3% | 21.7% | 35.4% | 28.9% | 37.5% | 51.6% | 22.9% | 27.2% | 32.5% | 66%
Cc1cc(C(=O)NCCS)nn1-c1ccccc1F | 28% | 12.8% | 20% | 16.3% | 31.2% | 15% | 34.8% | 31.7% | 16.9% | 19.4% | 18.1% | 50%
O=C(Nc1ccccc1C(=O)NCCS)c1ccccc1 | 20.7% | 9.6% | 15.9% | 9.6% | 17.7% | 9.1% | 24.8% | 25.5% | 11.3% | 13.5% | 7.4% | 12%
CC1(Cc2cc(Cl)cs2)CCCN1C(=O)CCS (stereo unspecified) |  | 26.9% | 31.6% | 32.8% | 29% | 32.5% | 55.2% |  | 31% | 23.9% | 18.7% | 46.5%

Structure (SMILES) | percent labeling [1] | percent labeling [2] | percent labeling [3] | percent labeling [4] | percent labeling [5] | percent labeling [6] | percent labeling [7] | percent labeling [8] | percent labeling [9] | percent labeling [10] | percent labeling [11] | percent labeling [12]
O=C1CCC(N2Cc3cc(C(=O)NCCS)ccc3C2=O)C(=O)N1 (stereo unspecified) | 32% | 20.5% | 28.1% | 25.4% | 32.3% | 30.3% | 45% | 50.4% | 28.7% | 23.8% | 25.1% | 37.2%
O=C(CCS)NC1CC(Cn2cncn2)C1 (stereo unspecified) |  | 0% | 30.3% | 41% | 24.7% | 29.4% | 15.6% |  | 18.5% | 31.9% | 30.4% | 47.4%
O=C(CCS)Nc1ccc(=O)n(Cc2ccccc2)c1 |  | 13.7% | 27.9% | 38.3% | 31.3% | 51.3% | 38.1% |  | 18.9% | 29.8% | 29.6% | 55.4%
O=C(NCCS)C1CCN(S(=O)(=O)c2ccccc2-c2ccccc2)CC1 | 17.2% | 7.6% | 7.9% | 5.3% | 8% | 8.4% | 15.2% | 22.8% | 7% | 9.1% | 4.4% | 14.3%
O=C(NCCS)C1CCCN(C(=O)c2ccncc2)C1 (stereo unspecified) | 25% | 10.1% | 31% | 26.6% | 34.2% | 33.2% | 13.8% | 34.1% | 25.6% | 28.2% | 27.8% | 36.9%
O=C(CCS)N(Cc1nc(C2CCCCCC2)no1)C1CC1 |  | 12.8% | 27.6% | 22.6% | 18% | 26.9% | 36.8% |  | 20.7% | 21.4% | 17.1% | 45.5%
O=C(Cc1ccc(-n2cccn2)cc1)NCCS | 22.4% | 10.1% | 18.7% | 16.6% | 22.8% | 13.5% | 23% | 27.1% | 13.8% | 13.5% | 14.2% | 19.5%
CCc1[nH]c(-c2ccc(Cl)cc2)nc1C(=O)NCCS | 30.7% | 13.8% | 18.2% | 10.4% | 15.6% | 10.9% | 43.5% | 38.9% | 15% | 13% | 8.3% | 19.3%
Cc1ccc(-c2nn(C)cc2C(=O)NCCS)o1 | 33.8% | 30.4% | 33.3% | 10.2% | 32.1% | 25.4% | 24.9% | 26.1% | 13.5% | 21.2% | 13.3% | 21.3%
O=C1NCC(C(=O)NCCS)c2ccccc21 (stereo unspecified) | 31.2% | 11.9% | 29.5% | 29.3% | 43.8% | 30.2% | 17% | 32% | 27.7% | 27% | 30.2% | 43%
Cc1ccn(CC(C)(O)C(=O)NCCS)c(=O)c1 (stereo unspecified) | 21.8% | 8.9% | 30.6% | 23% | 29% | 30.7% | 12.9% | 34.7% | 22% | 37% | 27.9% | 38%
O=C(Cn1c(=O)ccn(Cc2ccccc2)c1=O)NCCS | 38.6% | 17.3% | 37.2% | 34.2% | 47.5% | 50% | 39.1% | 37.5% | 26.1% | 36.6% | 38.2% | 50.3%
O=C(NCCS)c1cnn2cc(Br)cnc12 | 40.3% | 33.2% | 32.3% | 23.6% | 33.8% | 34.8% | 57.7% | 43.8% | 19.9% | 22.2% | 25.9% | 46.3%
CC1(C)CCc2nc(NC(=O)CCS)sc2C1 |  | 9.4% | 14.1% | 0% | 25.3% | 18.3% | 37.8% |  | 0% | 15.4% | 14.1% | 29%
O=C(NCCS)c1ccc(CN2CCCC2)o1 | 38.9% | 22.9% | 36.7% | 35.6% | 34.8% | 45.2% | 32.6% | 44.6% | 29.8% | 29.2% | 33.8% | 52.6%
CC(=O)N1CC(C(=O)NCCS)Oc2ccccc21 (stereo unspecified) | 30.6% | 10.9% | 33.7% | 27.2% | 34.9% | 26.6% | 27.9% | 29.6% | 20.6% | 36.4% | 28.7% | 56.7%
Cc1cc(C)n(Cc2cccc(NC(=O)CCS)c2)n1 |  | 14.3% | 36.1% | 32.5% | 23.9% | 26.5% | 36% |  | 23.9% | 24.7% | 25% | 61.6%
O=C(NCCS)C1CCCN1C(=O)Cc1cn2ccsc2n1 (stereo unspecified) | 18.8% | 7.3% | 22.2% | 10.1% | 23% | 19.6% | 17.5% | 16.7% | 10.6% | 14.9% | 12.2% | 27.1%
O=C(CCS)NCc1cc(Oc2cccc(F)c2)ccn1 |  | 20.3% | 54.7% | 43% | 33.8% | 51.7% | 38.2% |  | 23.5% | 30.1% | 23.6% | 51.7%
O=C(NCCS)c1cncn1-c1ccc(F)cc1 | 46.1% | 16.9% | 40.2% | 26.5% | 47.1% | 36.7% | 31.5% | 45.2% | 25.1% | 31.3% | 29.3% | 43.1%
CCN(CC)C(C(=O)NCCS)c1cc(Cl)cc(Cl)c1 (stereo unspecified) | 49.3% | 15.3% | 16.7% | 11.6% | 23.1% | 13.6% | 27.7% | 27.4% | 8.7% | 10.4% | 7.7% | 14.9%
O=C(CCS)N1Cc2ncccc2N2CCC[C@H]2C1 |  | 11.6% | 41.5% | 32.8% | 26.9% | 37.5% | 22.8% |  | 27.8% | 28.9% | 33.2% | 55.6%
CC1CN(C(=O)CCS)CCc2cc(Br)c(O)cc21 (stereo unspecified) |  | 26% | 32% | 21.9% | 21.1% | 32.3% | 47.9% |  | 25.9% | 20.8% | 16.8% | 45.1%

Source: PubChem BioAssay AID2202238 (Ras Initiative Chemistry Research Team, Frederick National …, 2025)
